Laboratory results published in PubChem BioAssay AID1159614 (National Center for Advancing Translational Sciences (NCATS), 2016).
Hit rate of the full screen: of about 45,000 compounds, about 65 (0.1%) were called active. Calls come from the whole dose curve; as a rule, active = well fitted activation curve with a large enough effect; inconclusive = small, poorly fitted or top-dose-only effect; inactive = no such curve, though single readings can be large or run the other way. Some of the results follow.

Each molecule was assayed against Galactocerebrosidase (Homo sapiens) (UniProt P54803) (assay: A Novel Cell-Based Assay to Identify Small Molecules for B -Galactocerebrosidase). Conditions: 145M-Twi-hGALC-G270D cells, HMU-beta-Gal fluorescence, 48 h; series mostly up to 57.5 µM; activation: at the top concentration.
In short: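 qHTS, 1536-well; 145M-Twi-hGALC-G270D cells (WT line also made) in DMEM/F12 + 10% FBS; compound incubation on live cells; HMU-β-gal 0.1 mM final, pH 5.2, NaTC; carbonate stop; fluorescence increase = enhanced residual activity.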
Note: 0% is about no effect; nearly all actives have a fitted effect of over 65% in size.

UniProt P54803, sequence (P54803 whole entry, looked up): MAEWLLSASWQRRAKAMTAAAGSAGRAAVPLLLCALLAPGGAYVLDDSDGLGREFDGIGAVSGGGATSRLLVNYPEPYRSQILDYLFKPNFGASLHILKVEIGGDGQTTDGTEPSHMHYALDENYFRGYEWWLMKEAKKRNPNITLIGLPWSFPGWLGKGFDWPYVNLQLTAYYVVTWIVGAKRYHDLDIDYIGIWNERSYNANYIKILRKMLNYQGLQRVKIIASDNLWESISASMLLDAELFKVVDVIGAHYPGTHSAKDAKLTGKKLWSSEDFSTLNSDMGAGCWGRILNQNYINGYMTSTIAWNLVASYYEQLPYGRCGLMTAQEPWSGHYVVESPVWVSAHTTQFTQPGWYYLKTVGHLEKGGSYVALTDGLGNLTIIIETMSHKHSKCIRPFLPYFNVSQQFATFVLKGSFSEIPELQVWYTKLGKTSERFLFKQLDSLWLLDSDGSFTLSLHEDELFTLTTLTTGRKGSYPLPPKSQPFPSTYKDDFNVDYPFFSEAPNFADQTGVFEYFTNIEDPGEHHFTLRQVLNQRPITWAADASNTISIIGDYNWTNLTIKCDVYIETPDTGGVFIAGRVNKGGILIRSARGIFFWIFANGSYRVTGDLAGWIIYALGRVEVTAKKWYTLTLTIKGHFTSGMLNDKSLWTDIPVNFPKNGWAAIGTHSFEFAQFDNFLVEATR

activation, inactive:
CCOc1ccc(OCC)c(NC(=O)C2CCCN(S(=O)(=O)c3ccc4c(c3)oc(=O)n4C)C2)c1 (stereo unspecified) -10.6%, CCOc1ccc2nc(N3CCN(C(=O)CS(=O)(=O)c4ccc(F)cc4)CC3)sc2c1 -5.2%, CCn1c(C(=O)N2CCC(C(=O)N3CCN(c4cccc(C)c4C)CC3)CC2)cc2sccc21 -5.3%, O=C(C1CCCN(S(=O)(=O)c2cccs2)C1)N1CCN(c2cccc(Cl)c2)CC1 (stereo unspecified) -13.8%, Cc1ccc(C)c(N2CCN(c3ncnc4c3nc3n4CCCCC3)CC2)c1 -5.2%, O=c1c2cc3c(cc2nc2sc(Nc4ccc(F)cc4F)nn12)OCO3 0.801%, Cc1ccc(NC(=O)Cn2nnnc2-c2ccccc2N)cc1 -14.5%, Cn1nc(C(=O)N2CCN(c3ccc(Cl)cc3)CC2)c2c1-c1ccccc1SC2 -8.87%, CCOc1ccc(C(=O)NCC(c2ccco2)S(=O)(=O)c2ccc(C)cc2)cc1 (stereo unspecified) -0.185%, COc1ccc(Cl)cc1NC(=O)N1CCC(CN2CCc3ccccc3C2)CC1 -2.64%, COc1cccc(CNC(=O)CSc2ccc(-c3sc(-c4ccccc4)nc3C)nn2)c1 -7.62%, c1ccc(CNc2nc3ccccc3c3nc(-c4ccccc4)nn23)cc1 -27%, Cn1c(=O)c2nc(SCC(=O)Nc3cc(Cl)ccc3Cl)n(C)c2n(C)c1=O -16.4%, NC(=O)CSc1nc2c(oc3ccccc32)c(=O)n1-c1ccccc1F -13.4%, Cc1ccc2c(=O)cc(C(=O)Nc3sc4c(c3C(=O)NCc3ccco3)CCC4)oc2c1C -16.5%, COc1ccc(NS(=O)(=O)c2cc3[nH]c(=O)c(=O)[nH]c3cc2C)cc1OC -2.49%, CCc1ccc(-n2nc3cc(C)c(NC(=O)c4cc(Cl)ccc4OC)cc3n2)cc1 -2.96%, Cc1ccc(NC(=O)c2ccc(NC(=O)N3CCSc4ncccc43)cc2)cc1Cl -0.663%, O=C(Cn1cc(S(=O)(=O)Cc2ccc(F)cc2)c2ccccc21)NCCc1ccccc1 -39.9%, Cc1ccc(CNC(=O)Cn2ncc3c(C)n(Cc4ccc(Cl)cc4)c(C)c3c2=O)cc1 -7.87%, COc1ccccc1Nc1cc(C)nc2nc(-c3ccccc3)nn12 -13.9%, CCCN(C(=O)Cn1ncc2c(=O)oc3ccccc3c21)c1cccc(C)c1 -18.1%, Cc1ccc(NC(=O)c2c(N3CCCC3=O)c3cc(C)ccc3n2C)c(C)c1 -19.8%, CCC(C)NC(=O)Cn1c(=O)n(Cc2ccc(C(=O)NCCCOC)cc2)c(=O)c2ccccc21 (stereo unspecified) 1.49%, COc1ccc(Nc2cc(C(=O)NCCc3ccccc3)c3ccccc3n2)cc1OC -11.5%, COc1ccc(OCCn2c(C3CC(=O)N(c4ccc(F)cc4)C3)nc3ccccc32)cc1 (stereo unspecified) 17.4%, CSc1ccc(CNCc2c(C(=O)O)c(C)n(Cc3ccc(F)cc3Cl)c2C)cc1 -16.1%, COC(=O)c1c(NC(=O)c2ccc(S(=O)(=O)N3CCCC(C)C3)cc2)sc2c1CCN(C(C)C)C2 (stereo unspecified) -23.8%, CC(C)c1ccc(NC(=O)CSc2ncc3c(n2)-c2ccccc2N(C)S3(=O)=O)cc1 -8.48%, Cc1ccc(Cl)c2sc(N3CCN(C(=O)C4CC4)CC3)nc12 -0.561%, COc1cccc(N2CCN(C(=O)C3CCCN(S(=O)(=O)c4ccc(Br)s4)C3)CC2)c1 (stereo unspecified) -11.3%, Cc1c(NC(=O)c2nc3ccccc3n(C)c2=O)cccc1[N+](=O)[O-] -7.16%, Cc1ccccc1CNC(=O)c1c(C)oc2c1C1=NCCN1C=N2 -10.7%, Cc1ccccc1Cn1cc(S(=O)(=O)c2ccc(Cl)cc2)c(=O)c2cc3c(cc21)OCO3 -10.2%, Cc1ccc(Cn2c(=O)n(CCCCC(=O)NCCc3ccc(Cl)cc3)c(=O)c3ccccc32)cc1 -7.31%, CCc1nnc2c(Nc3ccc(Br)c(C)c3)nc3ccccc3n12 -7.04%, COc1ccc(S(=O)(=O)N2CCN(c3ccc(F)cc3)CC2)cc1-c1noc(C)n1 -17.9%, Cc1cc(C)cc(OCC(=O)NCC(c2ccc(Cl)cc2)N2CCCCC2)c1 (stereo unspecified) -14.6%, Cn1c(=O)c2c(n3c4ccccc4nc13)NC(=O)CC2c1ccccc1F (stereo unspecified) -30.4%, CC1CCc2c(sc3nnn(Cc4ccc(F)cc4)c(=O)c23)C1 (stereo unspecified) -5.62%, COc1ccc(NC(=O)CSc2ncc(-c3ccc(Cl)cc3)[nH]2)cc1OC -8.86%, CCc1ccc(NCc2cc3cc4c(cc3n(CC(=O)Nc3ccc(Cl)cc3)c2=O)OCO4)cc1 29.2%, COc1ccccc1CCNC(=O)c1ccc2c(c1)c(C)c(C)n2C 1.66%, CCN(CC)S(=O)(=O)c1ccc2c(c1)N(CC(=O)Nc1c(C)cccc1C)C(=O)CO2 -5.22%, CCc1ccccc1NC(=O)Cn1nnc(C(=O)OC)c1C(=O)OC -19.3%, COc1ccc(OC)c(N(CC(=O)NCc2ccccc2)S(=O)(=O)c2ccccc2)c1 -22.3%, CCOC(=O)c1sc2ccccc2c1S(=O)(=O)Nc1ccc(N(C)C)cc1 -32%, CCOC(=O)c1sc(N2C(=O)c3oc4cc(C)c(C)cc4c(=O)c3C2c2cccc(O)c2)nc1C (stereo unspecified) -10.6%, COC(=O)c1cc(NC(=O)CCc2c(C)nc3c4c(C)cc(C)nc4nn3c2C)cc(C(=O)OC)c1 -13.4%, Cc1cc(S(=O)(=O)Nc2cccc(C(=O)O)c2)c(C)c(S(=O)(=O)c2ccccc2)c1 -2.28%, COc1ccc(-c2nc(C)c(CCNC(=O)C(=O)Nc3cccc(F)c3)s2)cc1OC -1.33%, COc1ccccc1NC(=O)CCCOc1cc(=O)n(C)c2ccccc12 -17.9%, CCc1ccccc1NC(=O)c1cc(S(=O)(=O)N(CC)c2ccccc2)ccc1F -3.07%, Oc1c(I)cc(I)c2cccnc12 -16.1%, CC1CCN(c2nc3c(S(=O)(=O)c4ccccc4)nnn3c3ccsc23)CC1 13.2%, CCOC(=O)CCn1nc(-c2ccc(C)cc2)c2ccccc2c1=O -11.9%, Cc1ccc(C)c(Cn2c(=O)n(Cc3ccccc3)c(=O)c3c(C)c(C)sc32)c1 -7.06%, CCc1ccc(CN(Cc2ccco2)C(=O)c2ccccc2Cl)cc1 -5.64%, CCc1ccccc1NC(=O)Nc1nnc(N2CCCC2)s1 -21.5%, COc1ccc(CCNC(=O)c2nn(-c3ccc(C)cc3)c(=O)c3c2c2ccccc2n3C)cc1OC -4.07%, O=C(CC1N=C2c3ccccc3N=C(SCC(=O)Nc3cccc(C(F)(F)F)c3)N2C1=O)NCc1cccs1 (stereo unspecified) -18.2%, Cc1ccc(C)c(N2CCN(S(=O)(=O)c3ccc4oc(=O)c5ncn(C)c5c4c3)CC2)c1 -12.2%, Cc1ccc(C(=O)COC(=O)c2cc(-c3ccccc3)nc3ccccc23)cc1C 6.13%, COc1cc(NC(=O)Cn2c(=O)n(Cc3ccccc3OC)c(=O)c3cccnc32)cc(OC)c1 2.59%, CCCNC(=O)c1ccc2c(c1)N(Cc1cccc(C)c1)C(=O)c1ccccc1S2 5.42%, Cc1ccc(S(=O)(=O)c2nnn3c2nc(NCc2ccc(F)cc2)c2sccc23)cc1 -1.79%, COc1ccc(NC(=O)CCN2CCN(c3cccc(Cl)c3)CC2)cc1 -11.1%, COc1cccc(CNC(=O)c2c(C)nn(-c3cccc(C)c3)c2-n2cccc2)c1 2.18%, O=C(NCCCc1ccccc1)c1nn(-c2ccccc2F)nc1CO -2.23%, CCN(CC)CCNC(=O)c1cc(S(C)(=O)=O)ccc1OC -18.2%, O=C(NC(=O)c1cccc(F)c1)Nc1ccc(-c2cc(C(F)(F)F)nn2-c2ccccc2)cc1 -22.4%, CC(=O)c1ccc(NC(=O)C2CCC(CNS(=O)(=O)c3ccc(Br)s3)CC2)cc1 (stereo unspecified) -12.7%, Cc1nc(-c2ccc(C)c(N3CCN(C(=O)Nc4ccccc4C(F)(F)F)CC3)c2)no1 -6.4%, O=C(NCCc1ccccc1)c1ccc(CSc2nc3cccnc3n2Cc2ccc(F)cc2)cc1 -5.5%, COC(=O)c1ccc(NC(=O)C2(S(=O)(=O)c3ccc(C)cc3)CC2)cc1 -16.2%, Cc1ccc(C(=O)Nc2nnc(S(=O)(=O)N3CCOCC3)s2)cc1 -18.2%, O=C(NCc1ccc(F)cc1)C1CCN(C(=O)c2ccc(-n3ccc4ccccc43)s2)CC1 -14.1%, Cc1ccc(CN2CCCn3nc(C(=O)NCCC(C)C)cc3C2=O)cc1 -1.75%, COC(=O)c1sc(-c2ccccc2)cc1NC(=O)c1cccc(F)c1 -14.3%, COc1ccc(CNCCSc2nnnn2-c2ccccc2)cc1 -4.69%, COc1ccccc1-n1cc(-c2ccc(C)cc2)nc1S(=O)(=O)CC(=O)Nc1ccccc1C(F)(F)F 6.56%, COc1ccc(CC(=O)Nc2ccc3nc(Nc4cccc(Cl)c4)cc(C)c3c2)cc1OC -12.2%, Cc1ccc(S(=O)(=O)N2CCC(Oc3ccc(-n4cnnn4)cc3)CC2)cc1 -8.83%, CCn1cc(S(=O)(=O)c2cc(C)cc(C)c2)c(=O)c2cc(F)c(N3CCOCC3)cc21 -18.4%, O=C(CCCN1CC=C(n2c(=O)[nH]c3ccccc32)CC1)c1ccc(F)cc1 -16.2%, CCOc1ccccc1-c1nc(-c2ccc(-c3ccccc3)nc2OCC)no1 -17.7%, COc1ccccc1NC(=O)CSc1nnc(-c2cccc(Cl)c2)o1 -16.3%, COc1cc(OC)c(NC(c2nnc(-c3ccccc3)o2)c2ccc(F)cc2Cl)cc1Cl (stereo unspecified) -12.9%, COc1ccc2nc(N(Cc3cccnc3)C(=O)CCc3ccccc3)sc2c1 -10.1%, COc1ccccc1Nc1c2c(nc3ccc(NC(=O)/C=C/c4cccc(OC)c4OC)cc13)CCCC2 -27.3%, Cc1ccc(Nc2c3c(nc4nncn24)CCC3)cc1 -6.08%, CCc1ccc(-n2nnc(-c3nc(-c4ccccc4)no3)c2C)cc1 -6.36%, COc1ccc(CCNC(=O)c2ccc3c(c2)N(Cc2cccc(C)c2)C(=O)c2ccccc2S3(=O)=O)cc1OC 5.09%, Cc1ccc(C)c(N(C)C(=O)c2cn(C)c(=O)c3ccccc23)c1 8.08%, CCOC(=O)c1c(Oc2ccc(C(=O)OC)cc2)nnc(-c2ccccc2)c1-c1ccccc1 -15%, Cc1ccc(CCNC(=O)CCc2cn(Cc3ccccc3C)c3ccccc23)cc1 -5.44%
